# Experimental data as given in publication PMC4336329 (PLoS ONE, 2015).
# Screen size: about 310,000 compounds; about 2,200 (0.71%) showed an effect of 50% or more. The effect is printed as a negative number. This is one part of the list.
# Target: human ether-à-go-go-related gene (hERG) potassium channel (human, UniProt Q12809)
# Experiment: primary screen, population patch clamp on CHO cells stably expressing hERG
# Sequence of human ether-à-go-go-related gene (hERG) potassium channel (Q12809 whole entry, looked up): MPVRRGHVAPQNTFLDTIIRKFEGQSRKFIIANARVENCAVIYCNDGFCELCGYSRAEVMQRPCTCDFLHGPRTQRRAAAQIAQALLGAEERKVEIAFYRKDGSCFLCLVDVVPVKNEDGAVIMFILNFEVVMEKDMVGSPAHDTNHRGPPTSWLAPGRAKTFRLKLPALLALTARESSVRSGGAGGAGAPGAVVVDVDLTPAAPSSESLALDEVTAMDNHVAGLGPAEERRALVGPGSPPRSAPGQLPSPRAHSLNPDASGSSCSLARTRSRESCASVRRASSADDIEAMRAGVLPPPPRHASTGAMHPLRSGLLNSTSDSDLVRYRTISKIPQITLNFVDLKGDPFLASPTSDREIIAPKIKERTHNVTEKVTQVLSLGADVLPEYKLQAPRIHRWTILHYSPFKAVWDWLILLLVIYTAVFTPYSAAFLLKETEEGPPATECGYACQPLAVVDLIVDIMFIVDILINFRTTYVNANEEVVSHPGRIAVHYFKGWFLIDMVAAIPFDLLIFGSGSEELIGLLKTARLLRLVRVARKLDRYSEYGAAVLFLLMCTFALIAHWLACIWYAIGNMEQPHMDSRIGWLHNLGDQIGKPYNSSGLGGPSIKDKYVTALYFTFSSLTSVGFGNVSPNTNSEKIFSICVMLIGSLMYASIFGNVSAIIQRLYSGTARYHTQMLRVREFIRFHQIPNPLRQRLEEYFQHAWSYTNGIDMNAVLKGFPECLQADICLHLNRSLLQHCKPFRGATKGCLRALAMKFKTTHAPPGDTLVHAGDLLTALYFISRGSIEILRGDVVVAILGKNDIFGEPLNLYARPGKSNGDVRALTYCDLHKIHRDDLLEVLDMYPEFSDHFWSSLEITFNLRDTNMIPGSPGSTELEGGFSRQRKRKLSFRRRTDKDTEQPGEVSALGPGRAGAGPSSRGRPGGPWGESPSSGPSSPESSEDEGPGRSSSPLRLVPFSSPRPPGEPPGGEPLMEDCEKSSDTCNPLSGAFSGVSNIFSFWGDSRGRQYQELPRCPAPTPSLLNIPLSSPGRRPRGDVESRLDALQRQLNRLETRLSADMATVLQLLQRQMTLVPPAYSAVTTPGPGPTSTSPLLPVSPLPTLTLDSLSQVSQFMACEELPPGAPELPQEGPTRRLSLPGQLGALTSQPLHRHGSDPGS
row,Compound,"hERG current change (%, negative = inhibition) at 1uM [%]"
1,COC(=O)c1ccccc1NC(=S)NC(=O)c1ccccc1,13.8
2,CCOc1ccc(N(C(=O)c2ccc(S(=O)(=O)N3CCCC3)cc2)C2C=CS(=O)(=O)C2)cc1 (stereo not shown),-15.6
3,COc1cc(/C=C/c2ccc3cccc(O)c3n2)ccc1O,9.59
4,CCOC(=O)C1=C(C)N=C2SC(C(=O)OC)=CC(=O)N2C1c1cccc(OC)c1 (stereo not shown),3.39
5,Cc1cc(C)nc(Nc2n[nH]c(-c3ccc(C(C)(C)C)cc3)n2)n1,16.5
6,COc1cccc(C(=O)N(c2ccccc2)C2C=CS(=O)(=O)C2)c1 (stereo not shown),11.4
7,CCCCNc1nc2sc3c(c2c(=O)n1-c1cccc(Cl)c1)CCN(C)C3,10.2
8,O=C(CC(Sc1ccc(Br)cc1)C(=O)O)c1ccc(Br)cc1 (stereo not shown),18.1
9,Cc1ccc(C(=O)N2CCCC(CCC(=O)N3CCN(c4ccccn4)CC3)C2)cn1 (stereo not shown),5.08
10,Cn1c(=O)c2cc(S(=O)(=O)Nc3cc(C(=O)O)cc(C(=O)O)c3)ccc2n(C)c1=O,10
11,Cc1cc(C)n(CCOc2ccc(Cl)cc2Cl)n1,8.11
12,Cc1sc(-c2ccccn2)nc1OC(=O)c1cccc(Cl)c1Cl,6.7
13,O=S(=O)(NCCNS(=O)(=O)c1ccccc1)c1ccccc1,1.31
14,Cc1cc([N+](=O)[O-])nn1CC(=O)N(C)C1CCCCC1,-22.1
15,COC(=O)c1c(NC(=S)Nc2ccc(CC(=O)O)cc2)sc(C)c1C,14.9
16,Cc1ccccc1OC(C)C(=O)Nc1ccc(S(=O)(=O)N2CCCC2)cc1 (stereo not shown),-6.84
17,CCOc1cc(NC(=O)c2ccco2)c(OCC)cc1NC(=O)c1ccco1,9.13
18,CC1=NN(c2ccccc2)C(=O)/C1=C/c1cc(C)n(C2CC2)c1C,10.9
19,CCCCN(CCCC)C(=O)CCS(=O)(=O)c1ccc2c(c1)n(C)c(=O)c(=O)n2C,-35.6
20,CCOC(=O)N1CCC(NC(=O)C2CCN(S(=O)(=O)c3cccc4cccnc34)CC2)CC1,3.97
21,CN1C[C@@H]2C(c3ccccc3)C3(c4ccc(C#N)cc4)CC2(C3)[C@H]1c1ccccc1 (stereo partly shown),12.7
22,CCC1(C)NC(=O)N(CC(=O)N2CCN(c3cccc(Cl)c3)CC2)C1=O (stereo not shown),10.7

row,Compound,"hERG current change (%, negative = inhibition) at 1uM [%]"
1,O=C(NCCO)/C(=C/c1ccc(Br)cc1)NC(=O)c1cccs1,-8.3
2,CN1CCN(C(=O)c2cc3ccccc3oc2=O)CC1,8.34
3,CC1=C(C)CS(=O)N(S(=O)(=O)c2ccc(Cl)cc2)C1 (stereo not shown),9.09
4,CN(C)S(=O)(=O)c1cccc(NC(=O)CN2C(=O)NC(Cc3ccccc3)C2=O)c1 (stereo not shown),5.03
5,CSc1nnc2c3cc(C)ccc3n(Cc3ccccc3)c2n1,10.3
6,C1N2CN3CN1CN(C2)C3,6.19
7,Cc1cccn2c(=O)c3c(nc12)N1CCCCCC1C1(C3)C(=O)N(C)C(=O)N(C)C1=O (stereo not shown),12.6
8,CCC(c1nnnn1CCc1ccccc1)N1CCN(c2ccc(OC)cc2)CC1 (stereo not shown),14.5
9,CC(=O)Nc1c(O)nc(C)[nH]c1=O,9.53
10,CC(=O)c1sc(NCc2ccc(C)cc2)nc1C,10.4
11,O=C(C1CCCN(S(=O)(=O)Cc2ccccc2)C1)N1CCC(Cc2ccccc2)CC1 (stereo not shown),9.04
12,Cc1nc(NCC2CCCO2)nc2c1C(=O)CC(C)C2 (stereo not shown),-3.04
13,Cc1ccc(NC(=O)C2CCCN(S(=O)(=O)c3cccc4nonc34)C2)cc1 (stereo not shown),12.1
14,COc1ccc(NS(=O)(=O)c2ccc(O)c(NC(=O)c3ccc(S(=O)(=O)N4CCCCCC4)cc3)c2)cc1,3.32
15,Cc1nn2c(-c3ccc(S(=O)(=O)N4CCN(CCO)CC4)o3)nnc2c2ccccc12,24
16,CCNC(=O)NNC(=O)C1CC(c2cccnc2)=NO1 (stereo not shown),6.79
17,O=C(c1nc2ccccn2c1CNCCn1ccc2ccccc21)N1CCOCC1,17.6
18,Cn1c(=O)oc2cc(S(=O)(=O)Nc3ccccc3)ccc21,10.4
19,Oc1c(Cl)cc(Cl)cc1CNc1nc2ccccc2[nH]1,12.6
20,Cc1ccc(C)c(Sc2ccc(NC(=O)CCl)cc2)c1,13.6
21,Cc1c(Br)c(C(F)(F)F)nn1CC(=O)NCC1CCCO1 (stereo not shown),0.408
22,Cc1ccc(-c2nc3ccccc3[nH]c2=O)cc1,6.32

row,Compound,"hERG current change (%, negative = inhibition) at 1uM [%]"
1,Cc1cc2c3c([nH]c2cc1S(=O)(=O)N1CCC2(CC1)OCCO2)CCCC3=O,8.36
2,CC(C)Oc1ccc(/C=N/NC(=O)c2nnn(-c3nonc3N)c2CN(C)c2ccccc2)cc1,9.88
3,CC(=O)Nc1ccc(S(=O)(=O)N(C)c2ccc(OCC(=O)OCC(=O)Nc3ccc(OC(F)F)cc3)cc2)cc1,5.6
4,CCC(C)NCCOCCOc1ccc(Br)cc1.O=C(O)C(=O)O (stereo not shown),1.3
5,COc1ccc(S(=O)(=O)N2CCCCCC2)cc1C(=O)N(C)Cc1ccc(OC)c(OC)c1OC,-4.49
6,COC(=O)c1ccccc1NC(=O)NCc1ccc2c(c1)OCO2,3.19
7,COc1ccc(CNS(=O)(=O)c2ccc3c(c2)N(C)CCO3)cc1,8.48
8,Cc1nnc(NN)n(N)c1=O,6.71
9,Cc1ccc(/C=N/NC(=O)c2nnn(-c3nonc3N)c2-c2ccccc2)o1,20.8
10,CC1=NN(c2nc(-c3ccccc3)cs2)C(=O)C1N=Nc1ccccc1 (stereo not shown),7.8
11,Cc1noc(C)c1S(=O)(=O)NCCCN1CCN(Cc2ccccc2)CC1,5.91
12,O=c1[nH]c(=O)n(C2OC(CO)C(O)C2O)cc1Br (stereo not shown),18.7
13,CC(=O)C1=C(C)NC(=O)CC1c1ccc(F)cc1 (stereo not shown),3.49
14,COc1ccc(S(=O)(=O)NCc2cccnc2)cc1C,13.5
15,CC12CCC(C(=O)[O-])(C/C1=N\O)C2(C)C.[Na+] (stereo not shown),19.2
16,O=C(Nc1ccc2ccccc2c1)c1nn(C23CC4CC(CC(C4)C2)C3)cc1Br,13.2
17,O=C(C1CC(c2cccc(Br)c2)=NO1)N1CCc2ccccc2C1 (stereo not shown),9.23
18,CCOC(=O)c1ccc(NC(=O)NCc2ccn(CC)n2)cc1,1.47
19,CCn1c(=N)n(CC(O)COc2ccc(C)cc2)c2ccccc21.Cl (stereo not shown),-16.8
20,O=C(c1ccc([N+](=O)[O-])cc1)N1CCSC1c1ccccc1 (stereo not shown),-6.02
21,Cc1cccc(NC(=S)NCCN2CCOCC2)c1C,3.59
22,COc1ccc(CNC(=O)C2CCCN2CCc2ccccc2)cc1OC (stereo not shown),-4.95

row,Compound,"hERG current change (%, negative = inhibition) at 1uM [%]"
1,Fc1ccccc1N1CCN(CCCNc2ccc3nncn3n2)CC1,7.34
2,NC1=NC(=O)/C(=C/c2cccc(F)c2)S1,20.6
3,N#CC1=C(SCc2ccccc2)NC(=O)CC1c1cccc(O)c1 (stereo not shown),4.28
4,CCCn1c(=O)c2ccccc2n2c(SCC(=O)/C(C#N)=C(\C)N)nnc12,6.39
5,Nc1cccc(C(=O)Nc2cccc3ncccc23)c1,18.1
6,CCOc1cc(C(=O)Nc2ccccc2N2CCN(S(C)(=O)=O)CC2)cc(OCC)c1OCC,-10.1
7,COc1cc2nc(Nc3cccc(F)c3)nc(N)c2cc1OC.Cl,5.98
8,Cc1cc2nc(N3CCN(C(=O)c4cccs4)CC3)sc2cc1C,5.28
9,COc1ccc(Cl)cc1NC(=O)NCC1CCN(Cc2ccccc2F)CC1,12.9
10,CC(C)(C)c1ccccc1NC(=O)c1ccc2c(c1)SC1=NS(=O)(=O)CCN12,11
11,COc1cccc(N2CCN(C3CC(=O)N(c4ccc(Cl)c(Cl)c4)C3=O)CC2)c1 (stereo not shown),11
12,Cc1ccccc1-c1nnc(SCc2ccccc2)o1,0.459
13,O=C(O)c1ccc(NC(CSCc2cccc(F)c2)C(=O)O)c([N+](=O)[O-])c1 (stereo not shown),17.3
14,COc1ccc(OCC(=O)Nc2c(C(=O)N3CCC(N4CCCCC4)CC3)oc3ccccc23)cc1,-82.8
15,Oc1ccc(Cl)cc1C1=NNC(c2cccs2)C1 (stereo not shown),16
16,O=C(CSc1ncccn1)NCc1ccc(F)cc1,6.72
17,COc1ccc(C(=O)Nc2nc(CC(=O)NCCc3ccccc3OC)cs2)cc1,0.571
18,CC(=O)Nc1ccc(S(=O)(=O)N2CCN(c3cc(C)nc4ccccc34)CC2)cc1,-71.6
19,Cc1c(NC(=S)N/C(=N/S(=O)(=O)c2ccc(Cl)cc2)c2ccccc2)c(=O)n(-c2ccccc2)n1C,14.4
20,CN(C)S(=O)(=O)c1ccc(NC(=O)N2CCN(c3cccc(C(F)(F)F)c3)CC2)cc1,12.7
21,CC1CCCCN1C(=O)CCS(=O)(=O)c1cc2c(cc1Cl)NC(=O)CO2 (stereo not shown),0.71
22,N/C(=N\OC(=O)C12CC3CC(CC(C3)C1)C2)c1cccnc1,5.26
